B1: LINE1-mini (parent)
chain: GGCAGAGCUCAACACAGCGUGGCAAAGUGGCUGUGGCUAGACUGCC

The source gives no read counts; variants with many changes may rest on few reads.

In the series the parent is B1. In words: self-cleavage, relative activity (ratio to wild type); higher = more cleavage; in vitro, sequencing; the parent is a self-cleaving ribozyme.
As for GGCAGAGAUCAACACAGCGUGGCACAGUCGCUGUCGCUAGACUGCC [C8A A25C G29C G35C], the self-cleavage stood at 0.03.
The same measure for GGCAGAGAUCAAGUCAGCGUGGCAAAGUGGCUGAAGCUAGACUACU [C8A C13G A14U U34A G35A G44A C46U]: 0.22.
The same measure for CGCAGAGCUCAACACGGCGUAGCAAAGUGACGGUGGCUAGACGGCC [G1C A16G G21A G30A U32G U43G]: 0.01; for GGCAGAGCUUAACACAGCGUGGCAAAGAGGCGGUGGCUAGACUGCC [C10U U28A U32G]: 0.29; for GGCAGAGCUCAACACAGCGUGGCCAGGUCACUGUGGCUAGACUGCA [A24C A26G G29C G30A C46A]: 0.09.
The result for GGCAGAGCUCAACACAGCGGGGCUAAGUGGCUGUGGCCAGACUGCC [U20G A24U U38C] reads 0.23; that for GGCAGAACUCAACACAGCGUAGCAAAGUGGCUGGGGCUAGAUUGCC [G7A G21A U34G C42U], 0.17.
On to GGCAGCGAUCAAAACAGCGUGGCAAAGUGGCUGUGGCUAGACUGCC [A6C C8A C13A], for which the self-cleavage came to 0.27.
With GGCAGAGGUCAACACAGCGUGGCAAAUUGGCUGCGGCUAGACUGCC [C8G G27U U34C], the self-cleavage was found to be 0.07.
The result for GGCAGUGCUCAACACAGCGUGGCAAUGUGGCUGUGUCUAGACUGCC [A6U A26U G36U] reads 0.12.
GUCGGAGCUCAACACAGCGUGGCAAAGUGGUUGUGGCUAGACUGCC [G2U A4G C31U]: the self-cleavage was 0.
The result for GGCAGAGCUCAACUCAGCGUGGCAAAGCGGAUGUGGCUAGACUGCC [A14U U28C C31A] reads 0.04; that for GGCAGAGCUCACCACAACGUGGCAAAGUGGCUGGGGCUAGACUACC [A12C G17A U34G G44A], 0.03; that for GGCAGAGCUCAACACAGCGUGGCAUAGUGGCUGUGGCUUGAGUGCC [A25U A39U C42G], 0.02.
The result for GGCAGAGCUCAACACAUAGUGGAAAAGUGGGUGUGGCUAGACUGCC [G17U C18A C23A C31G] reads 0.3.
The result for GGCACAGCUCAACACAGCGUGGCAAAGUGGCUGGGGCUAGACUGCA [G5C U34G C46A] reads 0.01.
On to GGCAGAGCUCAACACAGUGUGGCGAAGUGGCUGUGGCUAUACUGCC [C18U A24G G40U], for which the self-cleavage turned out to be 0.12.
The result for GGCAGAGCUCAACACAGCGUGGCAAAUUGGCAGGGGCUAGACUGCC [G27U U32A U34G] reads 0.02.
With GGUAGAGCUCUACUCAGCAUGGCAAAGUGGCUGUGGCUCGACUGCC [C3U A11U A14U G19A A39C], the self-cleavage was 0.02.
The result for GGCAGCGCCGAACACAGUGUGGCAAAGUGGCCGUGGCUACACUGCC [A6C U9C C10G C18U U32C G40C] reads 0; that for GGCAGAGCUCAACACAGCGUGGCAGAGUGGCUGUGGCCAGGUUGCC [A25G U38C A41G C42U], 0.04.
The result for UGCAGAGCUCAACACAGCGUGGCGAAGUGGUUCUGGCUAGAAUGCC [G1U A24G C31U G33C C42A] reads 0.02; that for GGCAGAGCGCAACACAGCGUGGCAAAGUGGCUGUGGCUAGUCAGCG [U9G A41U U43A C46G], 0.11; that for GGCAGAGCUCACUACAGCGGGGCAAAGUGGCUAUGGCUAUACUGCC [A12C C13U U20G G33A G40U], 0.01.
On to GGCAGAGCAUAACACAGCGUGUCAAAUUGGCUGUGGCUAGACUGCC [U9A C10U G22U G27U], for which the self-cleavage was 0.09.
The same measure for GGCAGAGCUCAACACAGCGUGGCCAAGUGUCUGUUGCUAAACUGCC [A24C G30U G35U G40A]: 0.08.
Regarding GGCAGAGCUCAACAGGGCGUGGCAAUGUGGCUGUGGCUAGACUGCC [C15G A16G A26U], the self-cleavage worked out at 0.09.
As to GGUAGAGCUCAACACAGAGUGGCAAAGUGUCUGUGGAUAGAUUUCG [C3U C18A G30U C37A C42U G44U C46G], the self-cleavage came out at 0.65.
The same measure for GGCAGAGCUAAACCCAGCGAGGGAAAGUGGCUGUGGCUAGAGUGCC [C10A A14C U20A C23G C42G]: 0; for GGCAGAGCUCAAAACAGCGUUGCAAAGUGGCAGUGGCUUGACUGCC [C13A G21U U32A A39U]: 0.01.
The same measure for GGCCGUGCUCAACACAGAGUGGCAAAGCGGCUGUGGCUAGACUGUU [A4C A6U C18A U28C C45U C46U]: 0.08; for GGCAGAGCUAAACACAGCGUGGCAAAGUGGCUGUUACUAGACUGCC [C10A G35U G36A]: 0.02.
For GGGAGAGCUCAACACAGCGUGGCAAAAUGGUUAUGGCUAGACUGCC [C3G G27A C31U G33A], the self-cleavage amounted to 0.1.
Turning to GGCAGAGCUCUACACAGCGUGGCAAAGCGGCUGUGGCUAGACUGGC [A11U U28C C45G], the self-cleavage was found to be 0.
For the variant GGCACAGCUCAACACAGCGUGGCAAAGUGGCUGUGGAUAGUCUGCG [G5C C37A A41U C46G], the self-cleavage came to 0.11.
In the case of GGCAGGGCUCAGCCCAGCGUCGCAAAGUGGCUGUGGCUAGACUGCC [A6G A12G A14C G21C], the self-cleavage came to 0.04.
Take GGCAAAGCUCAACACAGCUUGGCAAAGUGGCUGUUGCUAGACUGCC [G5A G19U G35U]: the self-cleavage turned out to be 0.22.
In the case of GGCAGAGCUCAACAGAGCGUGUCAAAGUGGCUGUUGCUAGACUGCC [C15G G22U G35U], the self-cleavage turned out to be 0.06.
On to GGCACAGAUUAACACAGCGUGGCAAAGAGGCUGUGGCUAGACUGCC [G5C C8A C10U U28A], for which the self-cleavage was 0.09.
The same measure for GGCAGGGCUCACCACAGCGUUGCAAAUUGACUGUGGCUAGACUGCC [A6G A12C G21U G27U G30A]: 0.02.
Take GGCGGAGUUCAACACAUCGUGGCAACGUGGCUGAGGCUAGGCUGCC [A4G C8U G17U A26C U34A A41G]: the self-cleavage was found to be 0.16.
Turning to GGCAGAGGUCAACACAGCGUGGCACAGUGGCUGUGGCUAGACCGCC [C8G A25C U43C], the self-cleavage was found to be 0.02.
For GGCAGGACUCAAAACAGCGUGGCAAGUUGGCUGUGGCUAGACUGCC [A6G G7A C13A A26G G27U], the self-cleavage stood at 0.01.
In the case of GGUAUAGCUCAACACAGCGUGGCAAAGUGGCCGUGGCUAGACUGCC [C3U G5U U32C], the self-cleavage is 0.05.
The same measure for GGCAGAGCUCAACACAGAGUGGCAGAGUGUCAGUGGCUAGACUGCC [C18A A25G G30U U32A]: 0.09; for GGCACAGCUCAACACAGCGUGGCAAACUGGCUGUGGCUAGAGUUCC [G5C G27C C42G G44U]: 0.05.
The same measure for GGCUGAGCUCAACACAGCGUGGCAACGUGGCUGAGGCUAGACUGCC [A4U A26C U34A]: 0.17; for GACAGAGCUCAACACAGCGUGGCAAAGUGGCUGUGGGUUGACUGCC [G2A C37G A39U]: 0.2; for GGCAGAGCUCAACACAGCGCGGGAAAGUGGCUGUGGGUAGACCGCC [U20C C23G C37G U43C]: 0.03.
With GGCAGAGCUCGACACAGCGUCGCAAAGUGGCUCUGGCUAGACUGCC [A11G G21C G33C], the self-cleavage is 0.02.
The result for AGCAGAGCUUAAGACAGCGUGGCAAAGUGGCUGUGGCUAGACUGCA [G1A C10U C13G C46A] reads 0.47; that for GGAAGAGCUCAACACAGCGUGGCAAAGUCGCUGUGGCUUGACUGCC [C3A G29C A39U], 0.11; that for GGCAGAGCUAAACACAGCGUGGCCAAGUAGCUGUGGCUAGACUCCC [C10A A24C G29A G44C], 0.01.
Take GGCAGUGCUCAACACACCGUGGCAAAGGGGCUGUGGCUAGACUGCC [A6U G17C U28G]: the self-cleavage is 0.51.
The same measure for GACAGAGCUAAACACAGCGUGGCAAAGUGGCUGUGGCUAGAAUGCC [G2A C10A C42A]: 0.04; for GGCAGAGCUCACCACAGCGUGGCAAAUUGGCUGUGGUUAGACUACC [A12C G27U C37U G44A]: 0.02.

The record behind these values is the RNAGym collection of RNA variant scans (doi:10.7554/elife.90254).
